Laboratory results published in article PMC8225741.
These are yes or no findings as the source states them, for the method shown. In cells and extracts the contact can be indirect. Some binding calls cover weakened binding; strength is not graded here.

By UniProt entry, the sequences of proteins in these tests, tags left out. Where a name states a change or a piece, a line headed by the entry shows the natural chain unless it says otherwise. Chains listed by the source or under a name are the forms on record and can include a tag or linker. Residues count along the entry.
UniProt Q92560: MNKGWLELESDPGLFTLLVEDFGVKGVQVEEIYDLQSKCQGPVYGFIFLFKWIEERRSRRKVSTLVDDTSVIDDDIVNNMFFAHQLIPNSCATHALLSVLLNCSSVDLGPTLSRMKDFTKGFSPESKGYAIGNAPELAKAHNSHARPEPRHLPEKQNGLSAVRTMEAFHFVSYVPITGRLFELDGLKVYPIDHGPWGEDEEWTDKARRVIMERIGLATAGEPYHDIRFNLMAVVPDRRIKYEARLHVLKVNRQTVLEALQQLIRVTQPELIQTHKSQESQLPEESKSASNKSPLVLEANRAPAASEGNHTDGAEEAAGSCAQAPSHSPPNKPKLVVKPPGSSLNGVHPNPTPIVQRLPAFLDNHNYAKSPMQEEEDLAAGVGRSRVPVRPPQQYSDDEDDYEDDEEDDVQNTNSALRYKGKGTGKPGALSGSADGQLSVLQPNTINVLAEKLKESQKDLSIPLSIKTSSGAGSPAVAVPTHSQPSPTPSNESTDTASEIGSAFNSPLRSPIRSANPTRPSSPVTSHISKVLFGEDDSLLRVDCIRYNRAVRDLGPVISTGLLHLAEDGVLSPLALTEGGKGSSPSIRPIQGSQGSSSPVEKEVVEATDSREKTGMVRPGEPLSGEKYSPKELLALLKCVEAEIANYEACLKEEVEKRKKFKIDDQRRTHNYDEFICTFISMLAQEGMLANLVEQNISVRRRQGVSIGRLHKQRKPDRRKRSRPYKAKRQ
UniProt Q8IXJ9: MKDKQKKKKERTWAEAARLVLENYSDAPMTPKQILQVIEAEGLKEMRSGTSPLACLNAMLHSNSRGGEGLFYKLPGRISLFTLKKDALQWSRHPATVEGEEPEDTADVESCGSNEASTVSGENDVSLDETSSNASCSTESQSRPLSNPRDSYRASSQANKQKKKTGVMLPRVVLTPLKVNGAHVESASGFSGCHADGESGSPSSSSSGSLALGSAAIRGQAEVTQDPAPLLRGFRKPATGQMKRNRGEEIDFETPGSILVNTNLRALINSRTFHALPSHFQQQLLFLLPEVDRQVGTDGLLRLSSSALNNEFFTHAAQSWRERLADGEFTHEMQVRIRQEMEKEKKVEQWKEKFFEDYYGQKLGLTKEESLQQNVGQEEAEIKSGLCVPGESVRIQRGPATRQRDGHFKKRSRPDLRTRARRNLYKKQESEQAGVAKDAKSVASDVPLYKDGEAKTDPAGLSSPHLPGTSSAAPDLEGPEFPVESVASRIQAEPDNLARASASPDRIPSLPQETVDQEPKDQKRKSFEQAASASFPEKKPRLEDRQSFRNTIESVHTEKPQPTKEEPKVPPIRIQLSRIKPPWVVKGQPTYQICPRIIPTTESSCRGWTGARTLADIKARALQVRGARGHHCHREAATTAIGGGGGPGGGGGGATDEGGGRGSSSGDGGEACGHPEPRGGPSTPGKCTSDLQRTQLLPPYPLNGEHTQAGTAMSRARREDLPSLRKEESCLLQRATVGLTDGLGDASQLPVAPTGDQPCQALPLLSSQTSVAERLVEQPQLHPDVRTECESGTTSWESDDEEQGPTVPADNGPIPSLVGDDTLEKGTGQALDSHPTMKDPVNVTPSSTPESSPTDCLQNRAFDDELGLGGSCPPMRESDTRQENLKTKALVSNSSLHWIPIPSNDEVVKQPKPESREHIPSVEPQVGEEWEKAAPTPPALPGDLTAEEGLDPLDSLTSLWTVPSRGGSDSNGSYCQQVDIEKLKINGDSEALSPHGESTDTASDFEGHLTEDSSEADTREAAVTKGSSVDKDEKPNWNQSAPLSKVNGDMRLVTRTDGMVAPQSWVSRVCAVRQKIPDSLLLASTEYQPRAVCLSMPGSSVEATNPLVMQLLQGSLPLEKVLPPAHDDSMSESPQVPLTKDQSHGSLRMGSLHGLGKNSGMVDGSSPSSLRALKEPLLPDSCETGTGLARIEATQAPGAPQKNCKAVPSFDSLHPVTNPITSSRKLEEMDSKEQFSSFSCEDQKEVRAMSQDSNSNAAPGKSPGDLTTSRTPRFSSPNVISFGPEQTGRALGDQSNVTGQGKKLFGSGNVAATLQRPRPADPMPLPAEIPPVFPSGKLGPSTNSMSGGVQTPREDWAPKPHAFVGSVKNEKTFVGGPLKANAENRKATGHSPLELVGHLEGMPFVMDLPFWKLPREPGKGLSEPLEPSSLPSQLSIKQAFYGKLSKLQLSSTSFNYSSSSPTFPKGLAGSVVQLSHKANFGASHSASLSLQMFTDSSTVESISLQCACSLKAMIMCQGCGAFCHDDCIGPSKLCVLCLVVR
ASXL1^N646-Flag (in HEK293T): residues 1-646 of Q8IXJ9
Flag-tagged C-terminally truncated ASXL1 N590: residues 1-590 of Q8IXJ9
UniProt Q01167: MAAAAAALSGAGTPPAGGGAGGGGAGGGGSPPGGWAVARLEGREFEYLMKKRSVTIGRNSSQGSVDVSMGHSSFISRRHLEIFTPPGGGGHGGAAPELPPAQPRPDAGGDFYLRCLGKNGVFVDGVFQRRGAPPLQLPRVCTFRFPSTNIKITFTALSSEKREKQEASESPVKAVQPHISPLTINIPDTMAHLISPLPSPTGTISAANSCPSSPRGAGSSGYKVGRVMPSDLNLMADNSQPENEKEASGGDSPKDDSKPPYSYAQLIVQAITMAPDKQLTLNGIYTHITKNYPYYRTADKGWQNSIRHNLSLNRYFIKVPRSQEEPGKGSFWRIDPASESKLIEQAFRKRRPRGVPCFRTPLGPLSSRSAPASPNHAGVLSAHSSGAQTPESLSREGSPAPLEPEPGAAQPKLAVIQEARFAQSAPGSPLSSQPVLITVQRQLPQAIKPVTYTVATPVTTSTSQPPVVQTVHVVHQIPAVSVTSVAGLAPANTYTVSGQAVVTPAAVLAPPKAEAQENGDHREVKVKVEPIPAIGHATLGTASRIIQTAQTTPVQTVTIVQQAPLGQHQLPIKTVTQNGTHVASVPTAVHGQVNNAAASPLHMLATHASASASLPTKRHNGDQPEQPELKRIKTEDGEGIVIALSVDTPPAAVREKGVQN

Experiments:
[1] = target: Flag-tagged BAP1 (BRCA1-associated protein 1) (human) (UniProt Q92560); assay: co-IP; HEK293T co-transfected with BAP1-Flag and increasing amounts of ASXL1^N646-Myc; anti-Flag IP, endogenous ASXL1 detected by Western blot (competition)
[2] = target: Flag-tagged wild-type ASXL1 (in HEK293T) (human) (UniProt Q8IXJ9); assay: co-IP; HEK293T transfected with the Flag-tagged protein; lysis in 50 mmol/L Tris-HCl, 150 mmol/L NaCl, 0.3% sodium deoxycholate, 0.5% NP-40, pH 7.4; anti-Flag beads 3 h at 4 °C; endogenous partners by Western blot; also in BAP1 knockdown (Flag-ASXL1) and ASXL1 knockdown (Flag-BAP1) cells
[3] = target: Flag-tagged C-terminally truncated ASXL1 N590 (human) (UniProt Q8IXJ9); assay: as above
[4] = target: ASXL1^N646-Flag (in HEK293T) (human) (UniProt Q8IXJ9); assay: as above
[5] = target: endogenous BAP1 (human (endogenous in U2OS, HEK293T, K562, Kasumi-1)) (UniProt Q92560); assay: co-IP; endogenous proteins in K562 and Kasumi-1 lysates (ASXL1^+/N590, ASXL1^+/N646 and ASXL1^+/− clones); IP with anti-BAP1 antibody, 3 h at 4 °C, Western blot

“ASXL1^N646-Myc (from UniProt Q8IXJ9 1-646) (domain or fragment)” was tested, and the binding [1] was “binds”.

For “endogenous BAP1 (from UniProt Q92560 1-729) (enzyme)”, the binding [2] was “binds”, the binding [3] was “binds” and the binding [4] was “binds”.

In the case of “endogenous FOXK2 (from UniProt Q01167 1-660)”, the binding [2] is reported as “binds”, the binding [3] is reported as “no binding” and the binding [4] is reported as “no binding”.

In the case of “endogenous wild-type ASXL1 (Additional sex combs-like 1) (from UniProt Q8IXJ9 1-1541)”, the binding [5] is reported as “binds” and the binding [1] is reported as “binds”.
